ChEMBL document CHEMBL4888484, “Replenishing the malaria drug discovery pipeline: Screening and hit evaluation of the MMV Hit Generation Library 1 (HGL1) against asexual blood stage Plasmodium falciparum ,using a nano luciferase reporter read-out” (2022)
Screen size: about 150,000 compounds; about 540 (0.36%) showed an effect of 50% or more. The list shows a part of the results.

Test system: Plasmodium falciparum
Experiment: Primary screen in NF54 nanoGlo assay, in single point, at 2uM, 72h; a lower Z score goes with more inhibition
Format: functional, Erythrocyte
Details: timepoint 72 hour

Row | Compound | % Inhibition [%] | Z score
1 | CCn1cc(NC(=O)c2cc(C3CC3)nc3onc(-c4cnn(CC)c4C)c23)c(C)n1 | 8 | -1.2
2 | Nc1nnc(CCNC(=O)Cn2nnnc2CN2CCCCCC2)s1 | -18 | 2.39
3 | CCNC(=O)N(Cc1ccccc1OS(=O)(=O)CC)CC1CC1 | 3 | -0.36
4 | CC(C)CCn1c(CN2Cc3[nH]cnc3C[C@H]2C(=O)O)nc2ccccc21 | 5 | -0.93
5 | O=C1c2[nH]nc(-c3ccc(Cl)cc3)c2[C@@H](c2cccnc2)N1CCc1c[nH]c2ccccc12 | 6 | -0.82
6 | O=C(C[C@@H]1CCNC[C@@H]1Cc1cc(CC2CCCCC2)on1)N1CCN(Cc2ccccc2)CC1 | -4 | 0.74
7 | CO[C@@]1(C(=O)NCc2ccc(Nc3ccncc3)cc2)CCOC1 | -1 | 0.12
8 | CCC1(C(=O)NC)CCN(c2ncc(C#N)c(N)n2)CC1 | -11 | 1.29
9 | O=C1C[C@H](NC(=O)Cc2ccc(OC(F)F)c(F)c2)CN1 | -9 | 1.61
10 | O=C(Nc1ccccc1F)c1cccc(-c2nc(-c3ccccc3)no2)c1 | -12 | 1.43
11 | C[C@H]1C[C@@H](CO)CCN1C(=O)c1cc2ccc(C(F)(F)F)cc2[nH]1 | -7 | 0.69
12 | Cc1ccc(C(=O)N2CCN(S(=O)(=O)c3ccc4c(c3)NC(=O)[C@H](C)O4)CC2)cc1 | -14 | 1.4
13 | CCN(CC)c1ncnc2c(-c3ccccc3)cn(CC(=O)N3CCN(c4ccccc4OC)CC3)c12 | -2 | 0.24
14 | O=C1N[C@@H](CO)C(=O)N1c1ccccc1OC(F)(F)F | 2 | -0.2
15 | Cc1cccc(CNC(=O)c2ccc(N3CCOc4ccccc43)s2)c1 | 0 | 0.09
16 | Cc1ccc(C(=O)N2CCN(c3ccccc3F)CC2)cc1N(C)S(C)(=O)=O | -17 | 2.07
17 | CN(C(=O)Cc1ccc2c(c1)OCO2)[C@H]1CCCc2c1cnn2C | -9 | 1.27
18 | Cc1ccccc1C[C@@]1(C2CCN(C(=O)C(C)(C)C)CC2)NC(=O)N(CCCN(C)C)C1=O | -5 | 0.58
19 | O=C(Cc1ccc(S(=O)(=O)Nc2ccc(F)cc2)s1)N1CCCC1 | 1 | -0.13
20 | COc1ccc2c(c1)C(C(=O)N1CC3CCC1C(C(=O)O)C3)CCC2 (configuration not stated) | -8 | 1.2
21 | CCn1cc(NC(=O)NCc2cccnc2N2CCOCC2)cn1 | -7 | 0.97

Row | Compound | % Inhibition [%] | Z score
22 | COc1ccccc1C1CN(C(=O)CC(C)(C)C)CC1C(=O)NC1CC1 (configuration not stated) | -16 | 1.49
23 | CCS(=O)(=O)CC(C)NC1CC(NC(=O)OC(C)(C)C)C1(C)C (configuration not stated) | 2 | -0.31
24 | CCn1c2ccccc2c2cc([C@H]3N[C@@](C)(CO)[C@H]4CN(C)C[C@@H]34)ccc21 | 1 | -0.11
25 | COc1ccc2c(c1)OCC[C@@H]2NC(=O)c1cc(C)c(C)cn1 | -4 | 0.67
26 | OC1CCN([C@H]2CCN(Cc3ccc(C(F)(F)F)cc3)C[C@@H]2O)CC1 | -4 | 0.54
27 | CCCCN(Cc1ccccc1)c1ccc(C(=O)O)cc1NS(=O)(=O)c1ccccc1Cl | 5 | -0.86
28 | CCN(Cc1nc(C(C)C)no1)C(=O)c1ccoc1 | -3 | 0.43
29 | CCCN(C(=O)Nc1ccc(Cl)cc1)c1nc(-c2ccc(C3CCCCC3)cc2)cs1 | -7 | 1.12
30 | N#Cc1c(Br)cccc1NCC(F)(F)CN | -16 | 2.43
31 | Cc1ccc(C#N)c(N2C[C@@H]3OC(=O)N(CCCN4CCOCC4)[C@@H]3C2)n1 | -12 | 2.36
32 | CC1CC(C)(C)C(CNC(=O)C2(C#N)CCC2)C1NC(=O)C1(C#N)CCC1 (configuration not stated) | -11 | 2.14
33 | Cc1ccc([C@H](C)NCC(=O)NCC(F)(F)F)c(C)c1 | -8 | 0.9
34 | COC(=O)C(NCC1COC2(CCC(C)CC2)O1)c1cccnc1 (configuration not stated) | -9 | 1.18
35 | C#CC(C)(C)OC[C@@H](O)CN1CCOCC1 | -5 | 0.45
36 | CC1(C)CO[C@@H](CC(=O)N2CCOC3(CCS(=O)(=O)CC3)C2)C1 | 0 | 0.06
37 | O=S(=O)(c1ccc(CC(F)(F)F)cc1)N1CCOCC12CCC2 | 34 | -4.9
38 | C[C@@H](Cc1ccc(O)cc1)N1CCC(n2cc(C3CC3)nn2)CC1 | -6 | 0.94
39 | O=C(c1cnc(C(F)(F)F)nc1)N1CCCC[C@@H]1Cn1ccnn1 | -7 | 0.79
40 | O=S(=O)(NC1CCN(c2ncnc3c2CCCC3)CC1)C1CC1 | -7 | 0.91
41 | O=C(COCc1ccccc1)N1CC[C@H](Oc2cc(C(F)(F)F)ccn2)C1 | -9 | 1.64
